According to publication PMC10801813, “In silico protein interaction screening uncovers DONSON’s role in replication initiation” (Science (New York, N.Y.), 2023):
No constants are given. Whether binding was seen depends on the method and setting. For some assays here: Binding seen in cells or lysates may run through a third protein. Tags and fused reporters may be left off the sequences shown. Some results given as binding are weak or reduced against the parent protein; the word gives no strength.

T1: Recombinant FLAG-tagged DONSON, wild type (Xenopus laevis) (UniProt Q5U4U4)
T1 sequence: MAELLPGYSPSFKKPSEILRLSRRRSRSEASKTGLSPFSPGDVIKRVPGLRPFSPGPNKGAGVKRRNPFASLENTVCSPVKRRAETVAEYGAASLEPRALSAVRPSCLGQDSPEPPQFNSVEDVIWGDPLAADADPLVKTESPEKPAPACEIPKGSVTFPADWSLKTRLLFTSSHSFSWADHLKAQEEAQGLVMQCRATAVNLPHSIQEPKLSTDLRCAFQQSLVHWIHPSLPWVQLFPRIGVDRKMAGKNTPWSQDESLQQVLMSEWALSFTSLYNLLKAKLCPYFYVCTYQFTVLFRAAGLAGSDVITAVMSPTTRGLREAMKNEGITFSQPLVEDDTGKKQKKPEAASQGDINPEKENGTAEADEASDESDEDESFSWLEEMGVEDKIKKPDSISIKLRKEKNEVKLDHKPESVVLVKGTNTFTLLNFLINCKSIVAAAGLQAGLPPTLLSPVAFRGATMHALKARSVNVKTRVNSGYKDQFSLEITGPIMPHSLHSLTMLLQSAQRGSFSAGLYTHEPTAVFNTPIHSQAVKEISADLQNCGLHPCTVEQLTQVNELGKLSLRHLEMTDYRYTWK

T2: FLAG-DONSON DEWE→RRAR, expressed in wheat germ extract (Xenopus laevis) (UniProt Q5U4U4)
T2 sequence: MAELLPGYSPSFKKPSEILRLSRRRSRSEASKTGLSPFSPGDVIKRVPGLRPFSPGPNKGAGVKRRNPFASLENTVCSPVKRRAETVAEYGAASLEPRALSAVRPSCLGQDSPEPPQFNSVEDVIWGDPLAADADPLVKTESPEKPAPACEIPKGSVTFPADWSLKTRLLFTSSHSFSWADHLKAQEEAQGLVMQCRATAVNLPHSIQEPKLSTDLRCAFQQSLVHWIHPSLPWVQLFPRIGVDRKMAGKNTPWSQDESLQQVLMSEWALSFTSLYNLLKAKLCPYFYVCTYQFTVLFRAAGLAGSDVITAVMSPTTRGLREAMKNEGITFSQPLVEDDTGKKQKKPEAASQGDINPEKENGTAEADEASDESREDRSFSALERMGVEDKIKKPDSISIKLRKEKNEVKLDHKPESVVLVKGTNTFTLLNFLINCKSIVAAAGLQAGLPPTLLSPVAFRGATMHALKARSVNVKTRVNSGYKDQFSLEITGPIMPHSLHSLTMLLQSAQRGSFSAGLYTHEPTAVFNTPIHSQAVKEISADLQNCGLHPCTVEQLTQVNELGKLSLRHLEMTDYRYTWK


Legend:
[1] = biological target: T1, Recombinant FLAG-tagged DONSON, wild type (Xenopus laevis); assay: co-IP; purified FLAG-DONSON and GINS mixed in the absence of TOPBP1, each 0.5 μM in IP wash buffer, 15 min room temperature; anti-FLAG beads 30 min room temperature; immunoblot (fig. S11B, lanes 14 to 16; fig. S13C); both purified
[2] = biological target: T2, FLAG-DONSON DEWE→RRAR, expressed in wheat germ extract (Xenopus laevis); assay: co-IP; FLAG-DONSON proteins expressed in wheat germ extract pre-immobilised on anti-FLAG M2 magnetic beads, incubated with 30% NPE 1 h 4°C, eluted with 3× FLAG peptide, immunoblot (Fig. 4D, figs. S12 and S14)

| binding [1] | binding [2] | Binder |
| --- | --- | --- |
| binds weakly |  | Recombinant Xenopus laevis GINS with SLD5 H76A, bacterial expression (complex, UniProt Q7ZT47 1-196; Q7ZT46 1-185; Q7ZT01 1-210; Q7ZT48 1-221) chain 1: MFCEKAIELIRELQRASDGQLPAFNEDGIRQILEEMKALYEQNQADVNEAKTEGRSDLIPTIKFRHCCLLRNRRCIVAYLYDRLLRIRALRWEYGSVLPSALRFHMSTEEMDWFNQYKRSLATYMRSLGGEEGLDITQDMKPPKSLYIEVRCLRDYGEFEIDDGTTILLKKNSQHFLPRWKCEQLIRQGVLEHVLS chain 2: MDASEVEFLAEKEQVTVIPNFSLDKVYLIGGDLGPFNPSLPVEVPLWLAINLKQRQKCRIVPPEWMDVEKLEAIRDQERREETFTPMPSPYYMELTKLLLNHAADNIPKADEIRTLVKDTWDTRIAKLRLSADSFVKGQEAHAKLDNLTLMEINTIGTFFTESLNHMYKLRTSLQNPEEGQSQDY chain 3: MWEPYMPVEPGLGREENFLSLEDLLMSQEKLPCCIESGFPRLGFLDKGGDSDSIPEGSKMELPLWLAKGLYDNKRRVLSVELPKIYREGWRTVFSADANVVDLHKMGPHYYGFGSQLLNFDSPENPEIAKTILQTFVGRFRRIMDSSQNAYNEDTSGLVARLDELERSLFRAGQRGLNAFQSWERGKAAQITASNLVQNYKKRKFNEADA chain 4: MEDELALSDQGSDEDEEVLTPAELINKLEEAWLNEKFAPELLESKSEVVECVMEQLNHMEQNLHRAKPGDLKISFAHMEIERIRYMLSSYLRSRMLKIEKFFPHILEKEKSRGEGEPPHLSPEEFAFAKEYMTNTETLLKSVALRHMPPNLQTVDLLKSVPKPNLDSFVFLRVKEEQNNILVEPETDEQSEYAIDMEVGSQHLIRYRTIAPLVASGAVKLI |
|  | no binding | Endogenous MCM3 of Xenopus nucleoplasmic egg extract (protein, UniProt P49739 1-807) MDYGGGFEDHELREAQREYLDFLDDDQDQGLYHGKVRDMIGSNEHRLIVNLNDVRRKNDKRANLMLNDAFAETIAFQRALKDLVASIDATYAKQFEEFSVGFEGSFGSKHVSPRTLTASLLGSLVCVEGIVTKCSLVRPKVMRSVHYCPATKKTLERKYSDLTSLEAFPSSSIYPTKDEENNPLETEYGLSTYKDHQTLSIQEMPEKAPAGQLPRSVDIIADDDLVDKCKPGDRVQIVGIYRCLPSKQGGFTSGTFRTILLANNIKLMSKEIAPTFSADDVAKIKKFCKAHSKDIFEHLSKSLAPSIHGHEYIKKAILCMLLGGNEKVLENGTRIRGDINVLLIGDPSVAKSQLLRYVLHTAPRAIPTTGRGSSGVGLTAAVTTDQETGERRLEAGAMVLADRGVVCIDEFDKMSDMDRTAIHEVMEQGRVTIAKAGIQARLNARCSVLAAANPVYGRYDQYRTPMENIGLQDSLLSRFDLLFIVLDKMDADNDQEIADHVLRMHRYRTPGEQDGYALPLGCSVEIFATDDPNASDVTDQELQIYEKHDNLLHGPRKNKSKIVSMQFIRKYIHVAKLIKPVLTSEAADYISQEYAKIRNHDQINNDSARTMPVTARALETMIRLSTAHAKVRMSKTIERQDAETALELVQFAYFKKVLAKEKKKTDKDLHDENLSQDTLSQESVRKSSRRAGKIADSQDDSMDPYSFSEQDSSLNENLSQSLRPQRKKAESQDGKRSLSQNRTKEFKAALLKAFKSSRSQSVAVSQLLELINKGNPEPFERSEVKEALDNMQNDNQVMVSEDVVFLI |
